Experimental data reported in the NIST ThermoML archive (doi:10.1016/j.jct.2007.02.009).

Test: molar heat capacity at constant pressure
Conditions: 101.33 kPa

CC(=O)N(C)C [N,N-dimethylethanamide]
Crystal
Conditions | molar heat capacity at constant pressure [J/K/mol]
5 K | 0.228
6.92 K | 0.654
7.22 K | 0.721
7.62 K | 0.856
7.95 K | 0.956
8.51 K | 1.18
8.93 K | 1.36
9.84 K | 1.79
10 K | 1.83
10.33 K | 2.07
10.83 K | 2.43
11.29 K | 2.742
11.7 K | 3.069
12.1 K | 3.374
12.61 K | 3.72
13.29 K | 4.32
13.96 K | 4.896
14.26 K | 5.14
14.96 K | 5.759
15 K | 5.81
15.61 K | 6.387
16.27 K | 7.06
16.97 K | 7.732
17.42 K | 8.207
18.07 K | 8.888
18.72 K | 9.611
19.38 K | 10.29
20 K | 10.93
20.02 K | 10.92
21.56 K | 12.62
23.94 K | 15.34
25 K | 16.56
26.36 K | 18.13
28.82 K | 20.87
30 K | 22.16
31.29 K | 23.55
33.76 K | 26.25
35 K | 27.55
36.25 K | 28.88
38.9 K | 31.36
40 K | 32.51
41.64 K | 34.1
43.46 K | 36.93
45 K | 37.34
45.94 K | 38.28
48.42 K | 40.59
50 K | 42.13
50.91 K | 42.85
51.46 K | 43.5
53.35 K | 45.21
55.83 K | 47.45
60 K | 50.8
60.25 K | 51.13
62.19 K | 52.56
64.67 K | 54.1
67.15 K | 55.76
69.64 K | 57.42
70 K | 57.65
72.11 K | 58.89
74.59 K | 60.29
77.07 K | 61.68
79.55 K | 63.16
80 K | 63.33
82.02 K | 64.43
83.12 K | 65.08
85.89 K | 66.5
87.54 K | 67.33
88.87 K | 67.93
90 K | 68.54
90.32 K | 68.74
91.85 K | 69.31
93.29 K | 70.17
94.81 K | 71.08
97.78 K | 72.39
100 K | 73.44
100.75 K | 73.58
101.54 K | 74.26
103.72 K | 75.3
106.68 K | 76.66
109.65 K | 78.11
109.85 K | 78.17
110 K | 78.3
112.61 K | 79.7
115.42 K | 80.92
118.23 K | 82.25
120 K | 83.09
121.2 K | 83.39
126.62 K | 86.14
129.43 K | 87.3
130 K | 87.55
130.8 K | 88.05
132.43 K | 88.71
135.24 K | 89.8
138.2 K | 91.13
140 K | 91.87
141.16 K | 92.37
144.13 K | 93.62
147.1 K | 94.78
147.67 K | 95.28
150 K | 96.03
150.06 K | 96.03
150.47 K | 96.03
153.03 K | 97.28
153.45 K | 97.28
155.99 K | 98.44
158.96 K | 100
160 K | 100.3
161.92 K | 101.4
164.85 K | 102.1
164.89 K | 102.5
166.41 K | 103.2
167.72 K | 103.5
169.39 K | 104.4
170 K | 104.6
170.51 K | 104.8
173.48 K | 106.3
176.44 K | 107.3
179.4 K | 108.5
180 K | 108.8
182.37 K | 109.7
185.33 K | 111
188.29 K | 112.3
190 K | 113.1
191.26 K | 113.7
194.22 K | 115
197.19 K | 116.2
198.32 K | 116.8
199.97 K | 117.7
200 K | 117.6
202.32 K | 118.7
202.75 K | 118.7
205.72 K | 120.2
206.44 K | 120.8
208.68 K | 121.8
209.51 K | 122
210 K | 122.5
212.79 K | 123.8
216.21 K | 126.5
217.95 K | 127.4
219.32 K | 127.6
220 K | 128.2
220.71 K | 128.8
220.98 K | 128.4
222.21 K | 129.5
222.65 K | 128.8
222.94 K | 129.4
223.63 K | 130.1
223.68 K | 130
226.52 K | 131.4
226.59 K | 131
226.87 K | 132
227.31 K | 131.5
229.5 K | 132.3
229.7 K | 132.6
230 K | 133.7
230.65 K | 134.2
230.87 K | 134.2
230.97 K | 134.3
232.41 K | 134.1
232.93 K | 135.1
233.15 K | 135
234.73 K | 137.4
234.88 K | 135.6
235.31 K | 136.9
236.3 K | 137
237.01 K | 139
237.7 K | 139.8
238.2 K | 139.8
238.37 K | 140.1
238.79 K | 141.8
239.42 K | 143.3
240 K | 138.8
240.09 K | 142.6
240.59 K | 144.8
241.4 K | 144.6
242.01 K | 145.3
250 K | 144
254.23 K | 146.1

Liquid, Vacuum adiabatic calorimetry
Conditions | molar heat capacity at constant pressure [J/K/mol]
249.41 K | 166.9
252.43 K | 167
253.91 K | 167.9
254.23 K | 167.7
255.94 K | 167.5
256.94 K | 168.2
259.44 K | 167.8
260 K | 168.5
260.45 K | 168.7
260.47 K | 168.7
263.48 K | 169.1
263.99 K | 169.4
265.33 K | 169.2
267.51 K | 169.5
267.87 K | 169.4
270 K | 169.6
271.02 K | 169.8
274.3 K | 169.7
274.53 K | 170.2
274.54 K | 169.9
276.6 K | 169.9
278.04 K | 170.5
280 K | 170.5
280.12 K | 170.4
280.93 K | 170.9
281.54 K | 170.8
284.16 K | 170.9
284.94 K | 170.9
285.04 K | 171
288.18 K | 171.2
288.53 K | 171.7
288.92 K | 171.3
290 K | 171.6
292.01 K | 172.8
292.02 K | 172.1
292.2 K | 171.7
292.89 K | 171.8
294.08 K | 172.1
295.5 K | 172.7
296.21 K | 172.1
296.85 K | 172.4
298.09 K | 172.6
298.15 K | 172.7
298.96 K | 173.2
300 K | 173
300.21 K | 172.9
300.79 K | 173.2
302.08 K | 173.4
302.42 K | 173.6
304.19 K | 173.5
304.71 K | 173.6
305.86 K | 174.2
306.05 K | 174.2
308.16 K | 174.3
308.61 K | 174.4
309.21 K | 174.8
310 K | 174.7
310.02 K | 174.9
312.13 K | 175.1
312.48 K | 174.9
312.6 K | 175.5
315.97 K | 175.9
316.07 K | 175.8
316.34 K | 175.8
319.33 K | 176.5
320 K | 176.8
320.01 K | 176.8
320.16 K | 176.8
322.66 K | 177.3
323.96 K | 177.9
325.97 K | 178.2
327.75 K | 178.6
329.23 K | 178.7
330 K | 179.1
331.51 K | 179.5
332.48 K | 179.5
335.71 K | 180.6
340 K | 181.6
